In publication PMC10945755 (Proceedings of the National Academy of Sciences of the …, 2024):

Assays:
[1] = molecular target: the molecule itself
RB1CC1(1286-1594) = RB1CC1(1286-1594) (UniProt Q8TDY2 1286-1594); test: SEC
[2] = molecular target: RB1CC1(1286-1594) R1375A mutant (UniProt Q8TDY2 1286-1594, R1375A); test: SEC
Nano-RB1CC1(1286-1594) = Nano-RB1CC1(1286-1594) (UniProt Q8TDY2 1286-1594); test: AUC

Binder | stoichiometry N [1] | binding result (RB1CC1(1286-1594)) | binding result [2] | binding result (Nano-RB1CC1(1286-1594))
TAX1BP1([…]) (domain or fragment, labeled (label not named) in the spectral shift binding assay) not shown | 2 | binds | binds | –
Trx-TAX1BP1([…]) (domain or fragment) not shown | – | – | – | binds
